This is an account of results in article PMC12136788.

Some of the results follow.

B1: chr6:114281168:114281169:-_ENSG00000196591_ENST00000368632|hu_hu|hu_hu_hu_mus_True|18_88 (ssRNA)
RNA: GGGAGUUCUACAGUCCGACGAUCUUCCAUUUUUCGGUAUAAACCAUAAUUUAACAGCAAGUUAUGAGUCAUCCGGAUUCUAUGAGGCUUCAUGGGAUGACCCUGGCCAUAAUAAUAAUUUCCAAUAUCACCAUCAUAGUAGUACAACAGAGGAUUGAGCAUCA
B2: chr18:54278284:54278285:-_ENSG00000091164_ENST00000590954|hu_mus|FALSE|FALSE (ssRNA)
RNA: GGGAGUUCUACAGUCCGACGAUCGAAGUCAUUCAUAUUUGUUGCCUGGACUGGAGUACCAAUGAAAGUAAAAUAUGAAAUUCUCGUUGUUUCUUCUUCUCCUUGAUUAGACUGAACAAAUAAAGUUACACUGUUGACAUUCUGCAACAGAGGAUUGAGCAUCA
B3: chr4:57314706:57314707:+_ENSG00000128050_ENST00000264221|hu_mus|FALSE|FALSE (ssRNA)
RNA: GGGAGUUCUACAGUCCGACGAUCCAGAAUUUCAAAAAUAGCUUGUGUGGCAUGACUCAUGAUGUCCACUUCAGUCUGCCCUAUAACAAGGCCAGCAAAACAGAAUUUUGCAGCAAUGAGUUGCUCCUCAGACCACUGUGGAUCCAACAGAGGAUUGAGCAUCA
B4: 107912119_107912325_1280_3pUTR_ENSMUSG00000000001_ENSMUST00000000001|mouse|control|control (ssRNA)
RNA: GGGAGUUCUACAGUCCGACGAUCGGAGAGCGCUAGCUAAGAUUCUGCGUGUUGCUGCCAUUCCUUGGUCCUGUCAUGCGUGCUGCUGACCCAAGAGACAGUAGAUGACAUCUGGUCUCAACACUCCUCCCUGUAAUAGCUUUUCAACAGAGGAUUGAGCAUCA
B5: chr12:72996793:72996794:+_ENSMUSG00000034574_ENSMUST00000085299|mus_mus|FALSE|FALSE (ssRNA)
RNA: GGGAGUUCUACAGUCCGACGAUCAGGGGGCAUGGGCAGCGCCGGCUCCAUUGUCUGAAGUGCAAAGUUGCUAUCAUUCCUAAGCCGAUAUGUGAUUUCUGGAUGGUCAUUGUUUCGGAAACAGCAAAAGAUAAAUGAAAUCCCCAACAGAGGAUUGAGCAUCA
B6: chrX:48760955:48760956:-_ENSG00000102100_ENST00000376521|hu_hu|motif|central (ssRNA)
RNA: GGGAGUUCUACAGUCCGACGAUCUAAAAAACAAACCAAAAAAUCAGAACAAAUUAAUCAAAAAUAAAGAUCCAAUGGCUCGGUUUACAUAUAGCAAAGACAGCCCAGGCAUCUUCCAUGCACACACACACCCCGCCCCGAUACCAACAGAGGAUUGAGCAUCA
B7: chr4:34758383:34758384:-_ENSMUSG00000039967_ENSMUST00000047950|mus_mus|motif|central (ssRNA)
RNA: GGGAGUUCUACAGUCCGACGAUCUUCAUCAUCUGAACCAUCGUUGUCAUUAAACACUAUGAAAUCUGUUGAAUAAAGACGGUUCUUUUUUAUGGGUCGCUGUUCCUGUUUAGCCACAGUAUUAAUAUUAGUCUUUUGAUUUUCCAACAGAGGAUUGAGCAUCA
B8: chr14:78183846:78183847:+_ENSG00000119705_ENST00000557342|hu_hu|hu_hu_hu_mus_False|48_78 (ssRNA)
RNA: GGGAGUUCUACAGUCCGACGAUCUCUCAGAAAUCUUUCUUCAUCAGAUGUUUGAGCUGUUUGCGGAGCCUUUGCUCUUUGAGCUUGAACCUGGACCUAUGGGAGGGAAAGCACUGUCAGAAAAGGUAAUUUUUUUUUUAAAGACAACAGAGGAUUGAGCAUCA
B9: chr14:17255229:17255230:+_ENSMUSG00000017485_ENSMUST00000017629|mus_mus|FALSE|FALSE (ssRNA)
RNA: GGGAGUUCUACAGUCCGACGAUCAACAAAUUCAUCUUCCCCAUCAUUUGUUAUGGGAGAUGCUUUAACUUUCAGUUCUUCUAAAUCAUUACUGUCAUCAGCAGCAGCAGCAUCAUCAUCCUCCUCUUCUGAGAAAUCAAAAGUCAACAGAGGAUUGAGCAUCA
B10: chr14:57741442:57741443:+_ENSG00000053770_ENST00000261558|hu_hu|FALSE|FALSE (ssRNA)
RNA: GGGAGUUCUACAGUCCGACGAUCAGUUUUCCAAGCUGGCUGUUUCUGUGGCUGAGUCACAGAUGCAAAAUUGGUAUUAUCUAAUGAAUUCUGUAAGUUGGCAUCUAAUAAAGUACCAAAUGGACAAGCCUGCAGAAGCAAGUCCAACAGAGGAUUGAGCAUCA
B11: chr3:124025330:124025331:+_ENSMUSG00000044528_ENSMUST00000058994|mus_hu|FALSE|FALSE (ssRNA)
RNA: GGGAGUUCUACAGUCCGACGAUCUUUUUUUCCCAUUCAUAAUAAUCCUCCUCCCCUCAAAUGUCUUUAAAAAAUACAUGAAACAGUUCAAUAACAAAAACCGAAGAGCACGAACUAUUUUCAAAAACAGAAAAAUCUCUAGUGCAACAGAGGAUUGAGCAUCA
B12: chr2:39278355:39278356:-_ENSG00000115904_ENST00000402219|hu_mus|FALSE|FALSE (ssRNA)
RNA: GGGAGUUCUACAGUCCGACGAUCACAGCUUCCUACUAAUGGGUGGGGACUGCCUUCAUCUGUCAUUUCUACAGUAUCUUCUAUAUGGCCCAGUAACUUUACACUAAGUUCAUGUAUAUCUACUAUACGACUGAAUAUGUUUUCCAACAGAGGAUUGAGCAUCA
B13: 31828029_31828323_880_CDS_ENSG00000204386_ENST00000375631|human|control|control (ssRNA)
RNA: GGGAGUUCUACAGUCCGACGAUCGAGCUCAUAGGGCUGGCAUUCAUCAGGAUUGAAAUCAUUUUCCUGCUUGGGCUGACCGUAGGGGAUGCCGCUGACCCCACUUCCGUAGCGCCAGGAGGCACCAUGAUCAUCGCUGAGGAGCAACAGAGGAUUGAGCAUCA
B14: 32059766_32061897_1963_3pUTR_ENSMUSG00000039262_ENSMUST00000036691|mouse|control|control (ssRNA)
RNA: GGGAGUUCUACAGUCCGACGAUCAGAACAUGGUGGGUGCUUCUUGGACAGGGAACUCUGGGGAGCCUUUGCGGACAACAGGCCCAUUCUCUGGCGGGGAGACCUUCUCAAUGCCCGGGGAUCGGGGGACUUCCUUUUCCACUGCAACAGAGGAUUGAGCAUCA

This test concerns the target T1, UNK ZnF1-3 (human, UniProt Q9C0B0 31-174).
T1 sequence: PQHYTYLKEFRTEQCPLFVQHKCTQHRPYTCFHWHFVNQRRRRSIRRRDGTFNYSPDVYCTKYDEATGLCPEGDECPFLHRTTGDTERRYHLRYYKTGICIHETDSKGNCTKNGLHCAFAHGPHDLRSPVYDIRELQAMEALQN
As to the kind of experiment: nsRBNS (natural sequence RNA bind-n-seq); RBNS binding buffer (assumed for nsRBNS): 25 mM Tris pH 7.5, 150 mM KCl, 3 mM MgCl2, 0.01% Triton X-100, 500 ug/ml BSA, 20 U/ml SUPERase-In, 4 C; UNK is unkempt and MSI1 is Musashi-1; names of the RNAs are library labels; protein concentration not given here; high values mean tight binding.
On to B1, for which the binding signal amounted to 0.835 enrichment R.

Molecule B2 gave a binding signal of 1.05 enrichment R. The molecule B3 gave a binding signal of 0.918 enrichment R. B4 displayed a binding signal of 0.634 enrichment R. On to B5, for which the binding signal was found to be 1.06 enrichment R. With B6, the binding signal is 2.13 enrichment R. B7 registered a binding signal of 0.474 enrichment R. B8 displayed a binding signal of 1.75 enrichment R.

B9 returned a binding signal of 1.29 enrichment R. Take B10: the binding signal is 0.929 enrichment R. The molecule B11 registered a binding signal of 2.1 enrichment R.

Molecule B12 gave a binding signal of 0.674 enrichment R. The molecule B13 returned a binding signal of 1.06 enrichment R. Consider B14, for which the binding signal came to 1.33 enrichment R.
